Out of some 94,000 compounds screened, about 6,200 (6.6%) were called active. This list was built around the results that the source calls inconclusive (neither active nor inactive); the mix of calls is not that of the screen. The call rests on the fitted dose curve; in most records, active means well fitted inhibition curve with a large enough effect; inconclusive means small, poorly fitted or top-dose-only effect; inactive means flat fitted curve, though single readings scatter. Where the call is inconclusive, the potency comes from a doubtful curve fit.
test: Cytotoxic Profiling in HEK 293 Cell Line of Diverse Libraries Using Quantitative High-Throughput Screening; details: HEK 293 viability, ATP luminescence (CellTiter-Glo), 48-72 h; activity change, negative = cytotoxicity: at 115 µM (top of the series) unless noted; series mostly up to 115 µM; further: nearly all actives have a fitted effect of over 60% in size
Summary of the method: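 Luminescence from cellular ATP, measured with CellTiter-Glo, indicates HEK 293 viability. Cells plated at 250 cells/well are treated with compound for 48 or 72 hr at 37 degree Celsius before reagent addition.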
On the % scale 0 is the no-effect control and ±100 the full control effect; potency means the concentration at half of the fitted maximal effect; tags describe the fitted curve by direction and shape.

Structure (SMILES)	Potency	activity change, negative = cytotoxicity	outcome
CC1=C(C(=O)OC(C)C)C(c2ccccc2Cl)N2C(CC(=O)N3CCCC3)=CSC2=N1 (configuration not stated)	inconclusive: 10 µM [inhibitor, full curve, poor fit]		
CCOc1ccc(CN2CCN(c3nc(C)cc(NC)n3)CC2CCO)cc1 (configuration not stated)	inconclusive: 44.7 µM [inhibitor, partial curve, poor fit]		
CCOc1ccc(CN2CCCC(CO)(CCc3ccccc3)C2)cc1CO (configuration not stated)	inconclusive: 17.8 µM [inhibitor, full curve]		
CN1CCC2(C1)CN(Cc1ccccc1)c1ccc(C(=O)NCCc3ccccn3)cc12 (configuration not stated)	inconclusive: 126 µM [inhibitor, partial curve, poor fit]		
COCC(=O)NC1CCC12CCN(C(=O)c1ccccn1)CC2 (configuration not stated)		inactive: -7.83%	
COc1ccc(C(=O)N[C@@H]2CN(Cc3ccccc3)C[C@H]2CN(C)C)cc1F	active: 6.31 µM		
CC(C)NC(=O)N1CCN2C(=O)c3cc(-c4ccccc4F)ccc3NC(=O)[C@H]2C1	inconclusive: 100 µM [inhibitor, partial curve]		
Cc1nc(CN2CCN(C(=O)Cn3nnnc3CN3C[C@@H](C)O[C@@H](C)C3)CC2)cs1		inactive: 2.63%	
COc1cccc([S+](=O)([O-])N2CC(Oc3ccc(F)c(C)c3)C2)c1		inactive: -17.7%	
O=C(NC1CCCCC1)c1cn2cc(-c3ccccc3)sc2n1	active: 63.1 µM		
O=C(NCc1cccc(-c2ccccc2)c1)C1CC(=O)N(C2CC2)C1 (configuration not stated)		inactive: -33.2%	
Fc1ccc(-c2nnc3ccc(NCCc4ccccc4)nn23)nc1	inconclusive: 35.5 µM [inhibitor, partial curve]		
O=C(Nc1ccc(Cl)cc1)N1CCCC(C(=O)N2CCC(N3Cc4cccn4C3=O)CC2)C1 (configuration not stated)	inconclusive: 44.7 µM [inhibitor, partial curve, poor fit]		
Cc1ccc(NC(=O)c2ccc3c(c2)N(C)C2CCCCCN2C3=O)cc1F (configuration not stated)	active: 31.6 µM		
Cc1ccc(C2NC(=O)N(CC(=O)N(C)c3ccccc3)C3=C2C(=O)OC3)cc1 (configuration not stated)	inconclusive: 50.1 µM [inhibitor, partial curve, poor fit]		
O=C(c1cc(F)ccc1F)N1CCC2(CC1)NC(=O)N(Cc1ccccc1)C2=O		inactive: -28.1%	
CNC(=O)c1ccc2c(c1)NC(C)(CNc1ccccc1)CO2 (configuration not stated)	inconclusive: 100 µM [inhibitor, partial curve]		
CC(C)(C)c1ccc(-c2cc(C[C@H]3CNCC[C@H]3CC(=O)NCc3cccs3)no2)cc1	active: 17.8 µM		
O=C(N[C@H]1CCN2C(=O)c3cc(-c4ccc(F)cc4F)ccc3NC(=O)[C@@H]2C1)c1cccs1	inconclusive: 50.1 µM [inhibitor, partial curve, poor fit]		
C[S+](=O)([O-])N1CCC(c2nnc3n2C(C(=O)NCCc2ccccc2F)CC3)CC1 (configuration not stated)		inactive: -4.9%	
O=C(c1ccc(F)cc1)N1CCCC2(CN[S+](=O)([O-])c3cnccc3N2)C1 (configuration not stated)		inactive: -2.03%	

Structure (SMILES)	Potency	activity change, negative = cytotoxicity	outcome
COc1cccc(S(=O)(=O)N2CCCCC2c2n[nH]c(C)n2)c1 (configuration not stated)		inactive: 6.41%	
CC(=O)NC1CC2(CCN(C(=O)C3CCN(C)CC3)CC2)c2ccccc21 (configuration not stated)	active: 44.7 µM		
O=C1CC2(CCN(C(=O)c3ccccc3)CC2)Oc2ccccc2N1	inconclusive: 31.6 µM [inhibitor, partial curve, poor fit]		
Cc1cc(=O)n(CC(=O)Nc2ccccc2F)c(-c2ccc(Cl)cc2)n1	inconclusive: 50.1 µM [inhibitor, partial curve, poor fit]		
COc1cccc(CN2CCC3(CNc4ccccc4[S+](=O)([O-])N3)C2)c1 (configuration not stated)	inconclusive: 89.1 µM [inhibitor, partial curve, poor fit]		
O=C(C1CCCC1)N1CC2(CCN(Cc3ccccn3)C2)OCc2ccccc21 (configuration not stated)	inconclusive: 79.4 µM [inhibitor, partial curve, poor fit]		
OCc1ccc(CN(Cc2ccc(CO)o2)C2(Cc3cc(-c4ccccc4)on3)COC2)o1		inactive: -23.6%	
COc1cc(CNC(=O)[C@@H]2C[C@@H](c3ccc(F)cc3)N(Cc3ccccc3)C2)cc(OC)c1	inconclusive: 44.7 µM [inhibitor, partial curve, poor fit]		
COc1ccccc1C(=O)Nc1cc(-c2cccnc2)nn1-c1ccccc1	inconclusive: 28.2 µM [inhibitor, full curve]		
Cn1cccc1C(=O)N1CCC(n2cc(-c3nc(-c4ccccc4)no3)nn2)CC1	inconclusive: 50.1 µM [inhibitor, partial curve, poor fit]		
COc1ccccc1C(O)c1nc(Nc2cccc(F)c2)n[nH]1 (configuration not stated)	inconclusive: 112 µM [inhibitor, partial curve, poor fit]		
O=C(NCc1ccc(Cl)cc1)c1cnn2ncccc12	inconclusive: 126 µM [inhibitor, single point]		
O=C1N(Cc2ccccc2)c2ccccc2C12CCN([S+](=O)([O-])c1ccccc1)C2 (configuration not stated)		inactive: -27.2%	
Cc1ccc(-c2cccc(CN3CCCC3C(=O)NCc3ccc(C(F)(F)F)cc3)c2)cc1Cl (configuration not stated)	inconclusive: 44.7 µM [inhibitor, partial curve, poor fit]		
CCN1CC(C(=O)NCc2cccc(-c3ccccc3)c2)CCC1=O (configuration not stated)	active: 35.5 µM		
CCN(CC)c1cc(CCC(=O)N2CCN(c3ccc(Cl)cc3)CC2)ccn1	inconclusive: 35.5 µM [inhibitor, partial curve, poor fit]		
CCN(CC)C(=O)C[C@@H]1c2nc(NC(=O)C3CCC3)sc2C[C@@H]2[C@](C)(CO)[C@H](O)CC[C@]21C		inactive: -24.4%	
CCOC(=O)COC1CCN(C(=O)CC2CCCC2)CC(=O)N(C)c2ccccc21 (configuration not stated)			inactive
CC(C)Oc1ccc2c(NC(=O)c3ccnn3C)nn(Cc3ccccc3)c2c1	inconclusive: 44.7 µM [inhibitor, partial curve, poor fit]		
COc1cc(CNC(=O)[C@@H]2C[C@@H](c3cccc(C(F)(F)F)c3)N(C)C2)cc(OC)c1	inconclusive: 100 µM [inhibitor, partial curve]		
CC(C)NC(=O)c1ccccc1OCC1CCCN(Cc2ccc3[nH]ccc3c2)C1 (configuration not stated)	inconclusive: 35.5 µM [inhibitor, partial curve, poor fit]		
